This is one part of the list. Most values come without repeats; read them as rough.
What was measured:
Experiment in all cases: cell count relative to DMSO control; melanoma cells; higher = more viable cells
Details in all cases: library dose: standard library concentration; 72 h
G361 = system: G361
IPC-298 = system: IPC-298
IST-MEL1 = system: IST-MEL1
LB2518-MEL = system: LB2518-MEL
LOXIMVI = system: LOXIMVI
MEL-HO = system: MEL-HO
MZ2-MEL = system: MZ2-MEL
MeWo = system: MeWo
RPMI7951 = system: RPMI7951
RVH-421 = system: RVH-421
SkMel28 = system: SkMel28
SkMel2 = system: SkMel2
SkMel30 = system: SkMel30
SkMel5 = system: SkMel5
UACC257 = system: UACC257
UACC62 = system: UACC62
WM115 = system: WM115
WM1716 = system: WM1716
WM1745 = system: WM1745
WM3526 = system: WM3526
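Further: cells treated in 1,536-well plates, then fixed and DAPI-stained, with nuclei counted from automated high-throughput microscope images.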

SMILES | cell count (G361) | cell count (IPC-298) | cell count (IST-MEL1) | cell count (LB2518-MEL) | cell count (LOXIMVI) | cell count (MEL-HO) | cell count (MZ2-MEL) | cell count (MeWo) | cell count (RPMI7951) | cell count (RVH-421) | cell count (SkMel28) | cell count (SkMel2) | cell count (SkMel30) | cell count (SkMel5) | cell count (UACC257) | cell count (UACC62) | cell count (WM115) | cell count (WM1716) | cell count (WM1745) | cell count (WM3526)
Cn1c(Nc2ccc(C(F)(F)F)cc2)nc2cc(Oc3ccnc(-c4ncc(C(F)(F)F)[nH]4)c3)ccc21 + COc1cc2ncnc(Nc3ccc(Oc4ccccc4)cc3)c2cc1OC [SrcI1] (first compound 0.4 µM, partner dose 10 µM) | 24.1% | 50.2% | 73.6% | 33.1% | 72% | 64.6% | 52.6% | 51.2% | 38% | 56.5% | 31.4% | 56.2% | 56.5% | 36.3% | 64.7% | 39.5% | 24.4% | 47.1% | 36.1% | 26.3%
OCc1c[nH]c2ccccc12 [Indole-3-carbinol] + O=C(CCCCCCC(=O)Nc1ccccc1)NO [vorinostat] (first compound 4 µM, partner dose 0.4 µM) | 74.8% | 86.3% | 87.4% | 90.1% | 67.7% | 88.8% | 110% | 85.2% | 64.2% | 104% | 49.2% | 92.8% | 101% | 90.6% | 76.4% | 83.3% | 85.4% | 115% | 73.2% | 85%
C#Cc1cccc(Nc2ncnc3cc(OCCOC)c(OCCOC)cc23)c1 [erlotinib] + Cn1cc(/C=C2\C(=O)Nc3cccnc32)c2ccccc21 [GW441756] (first compound 4 µM, partner dose 2 µM) | 72.8% | 70.3% | 96.5% | 59.9% | 77.1% | 83.5% | 80.9% | 72.6% | 73.9% | 103% | 63.4% | 83.4% | 61.3% | 66.4% | 86.4% | 48.9% | 76.2% | 114% | 60.9% | 69.2%
COCC[n+]1c2c(n(Cc3cnccn3)c1C)C(=O)c1ccccc1C2=O + CC(C)CCN1c2nc(Nc3cc(F)c(O)c(F)c3)ncc2N(C)C(=O)C1C [BID1870] (first compound 0.002 µM, partner dose 1 µM) | 49.6% | 35.4% | 46.7% | 14.5% | 86.3% | 57.5% | 26.7% | 24.4% | 43.2% | 84.6% | 40.2% | 19.1% | 44.8% | 32.7% | 24.7% | 51.2% | 64% | 52.1% | 83.1% | 26.9%
Clc1ccc(Nc2nnc(Cc3ccncc3)c3ccccc23)cc1 [vatalanib] + Cn1cncc1[C@@](N)(c1ccc(Cl)cc1)c1ccc2c(c1)c(-c1cccc(Cl)c1)cc(=O)n2C [tipifarnib] (first compound 10 µM, partner dose 0.05 µM) | 55.5% | 62.7% | 59.3% | 67.2% | 71% | 61.7% | 80.9% | 67.1% | 53.4% | 62.7% | 59.5% | 58.2% | 107% | 49.1% | 65.9% | 62.8% | 50.1% | 49.1% | 44% | 64.7%
Clc1ccc(Nc2nnc(Cc3ccncc3)c3ccccc23)cc1 [vatalanib] + COc1ccc(Cl)c(Nc2nc3ccccc3nc2NS(=O)(=O)c2cccc(NC(=O)C(C)(C)N)c2)c1 [XL147] (first compound 10 µM, partner dose 4 µM) | 69.6% | 62.2% | 70.8% | 86.8% | 55.5% | 60.7% | 64.9% | 55.9% | 67.1% | 90.8% | 49.3% | 66% | 71.6% | 61.4% | 81.9% | 60.7% | 75.5% | 68.8% | 50% | 65%
C#Cc1cccc(Nc2ncnc3cc(OCCOC)c(OCCOC)cc23)c1 [erlotinib] + C=CCn1c(=O)c2cnc(Nc3ccc(N4CCN(C)CC4)cc3)nc2n1-c1cccc(C(C)(C)O)n1 [MK1775] (first compound 4 µM, partner dose 0.1 µM) | 63.2% | 53.7% | 81.7% | 45.6% | 71.5% | 77.7% | 83.9% | 68% | 52.2% | 71.4% | 41.9% | 75.3% | 63.1% | 39.7% | 85.2% | 50.9% | 51.3% | 82% | 32.2% | 72.8%
Clc1ccc(Nc2nnc(Cc3ccncc3)c3ccccc23)cc1 [vatalanib] + CO[C@@H]1[C@H](N(C)C(=O)c2ccccc2)C[C@H]2O[C@]1(C)n1c3ccccc3c3c4c(c5c6ccccc6n2c5c31)C(=O)NC4 [Midostaurin] (first compound 10 µM, partner dose 0.4 µM) | 29.4% | 31.4% | 51.1% | 26.6% | 30.8% | 39.8% | 25.3% | 48.7% | 32.9% | 49.8% | 33.9% | 30.4% | 66.6% | 38.1% | 55.9% | 56.2% | 32.2% | 29.7% | 18.6% | 48.8%
Cn1c(Nc2ccc(C(F)(F)F)cc2)nc2cc(Oc3ccnc(-c4ncc(C(F)(F)F)[nH]4)c3)ccc21 + O=C(O)c1ccc(-c2c[nH]c3ncc(-c4ccccc4)cc23)cc1C1CCCC1 [GSK650394] (first compound 0.4 µM, partner dose 0.8 µM) | 29.6% | 49% | 74.4% | 33.9% | 75% | 62.4% | 71.3% | 69.4% | 41.9% | 44.3% | 41% | 53.1% | 72.5% | 37.1% | 59.9% | 56.5% | 38.2% | 57.5% | 81.3% | 44.4%
Cn1c(Nc2ccc(C(F)(F)F)cc2)nc2cc(Oc3ccnc(-c4ncc(C(F)(F)F)[nH]4)c3)ccc21 + CC(C)(C)c1cnc(CSc2cnc(NC(=O)C3CCNCC3)s2)o1 [SNS-032] (first compound 0.4 µM, partner dose 0.05 µM) | 20.2% | 47.7% | 60.4% | 22.8% | 54.8% | 62.4% | 45% | 64.8% | 23.6% | 46.1% | 26.7% | 33.4% | 69.3% | 23.5% | 69.5% | 52.9% | 25.6% | 58.1% | 49.1% | 33.4%
COCC[n+]1c2c(n(Cc3cnccn3)c1C)C(=O)c1ccccc1C2=O + O=C1NC(=O)/C(=C/c2ccc(-c3ccc(F)cc3O)o2)S1 [AS252424] (first compound 0.002 µM, partner dose 5 µM) | 95.7% | 84.5% | 87.2% | 90.4% | 96.2% | 83% | 70.4% | 98.4% | 88.2% | 91.8% | 88.2% | 83.3% | 90.5% | 75.4% | 76.1% | 87.6% | 91.8% | 95.9% | 125% | 82.8%
O=C(CCCCCCC(=O)Nc1ccccc1)NO [vorinostat] + COc1ccc(-c2ccc3c(N4CCOCC4)nc(N4C[C@@H](C)O[C@@H](C)C4)nc3n2)cc1CO [KU0063794] (first compound 0.4 µM, partner dose 0.1 µM) | 70.5% | 58.6% | 102% | 69.7% | 52.4% | 70.3% | 69.6% | 80.1% | 69.9% | 83.5% | 42.3% | 58% | 77.8% | 45% | 77.1% | 110% | 74.9% | 90.1% | 94.3% | 59.2%
Nc1cccc2c1CN(C1CCC(=O)NC1=O)C2=O (stereo not given) [lenalidomide] + O=C1NC(=O)/C(=C/c2ccc(-c3ccc(F)cc3O)o2)S1 [AS252424] (first compound 5 µM, partner dose 5 µM) | 93.6% | 91.5% | 105% | 105% | 92.3% | 94.8% | 93.1% | 86.8% | 89.8% | 105% | 99% | 83.3% | 74.8% | 62.5% | 100% | 86.7% | 87.2% | 93.4% | 107% | 81.3%
Nc1cccc2c1CN(C1CCC(=O)NC1=O)C2=O (stereo not given) [lenalidomide] + Oc1cc(-c2nc(-c3ccccc3)[nH]c2-c2ccncc2)ccc1Cl [L779450] (first compound 5 µM, partner dose 1 µM) | 62% | 85.1% | 95.8% | 75.4% | 87.8% | 83.3% | 88.4% | 95.2% | 97.6% | 85% | 54% | 23.5% | 110% | 73% | 79.5% | 65.4% | 42.3% | 72.2% | 53.3% | 48.8%
Cn1c(Nc2ccc(C(F)(F)F)cc2)nc2cc(Oc3ccnc(-c4ncc(C(F)(F)F)[nH]4)c3)ccc21 + COc1ccc(COc2ccc(Cc3cnc(N)nc3N)cc2OC)cc1 [GW2580] (first compound 0.4 µM, partner dose 5 µM) | 28.3% | 48.2% | 97% | 41.9% | 98.7% | 73.8% | 66.2% | 66.9% | 58.8% | 63.7% | 38.8% | 51.5% | 57.4% | 43.6% | 82.9% | 67% | 46% | 81.2% | 63.4% | 50.8%
Nc1cccc2c1CN(C1CCC(=O)NC1=O)C2=O (stereo not given) [lenalidomide] + Cn1cncc1[C@@](N)(c1ccc(Cl)cc1)c1ccc2c(c1)c(-c1cccc(Cl)c1)cc(=O)n2C [tipifarnib] (first compound 5 µM, partner dose 0.05 µM) | 79.5% | 84.9% | 289% | 80.3% | 63.4% | 87.2% | 109% | 88.4% | 74% | 102% | 72.8% | 70.5% | 115% | 80.3% | 85.7% | 69.9% | 61.3% | 66.3% | 62.3% | 64.6%
COCC[n+]1c2c(n(Cc3cnccn3)c1C)C(=O)c1ccccc1C2=O + NC(=O)Nc1cc(-c2cccc(F)c2)sc1C(=O)N[C@H]1CCCNC1 [AZD7762] (first compound 0.002 µM, partner dose 0.1 µM) | 72.1% | 55.1% | 54.4% | 23% | 73.7% | 82.5% | 34.7% | 25.6% | 27.2% | 107% | 30.5% | 25% | 74.1% | 37.8% | 21.3% | 60.5% | 63.8% | 60.9% | 75.6% | 27.8%
O=C(CCCCCCC(=O)Nc1ccccc1)NO [vorinostat] + c1cc(-c2cnn3cc(-c4ccc(OCCN5CCCCC5)cc4)cnc23)ccn1 [Dorsomorphin] (first compound 0.4 µM, partner dose 2 µM) | 40.8% | 83.9% | 98.1% | 87.6% | 85% | 79.4% | 72.7% | 65.9% | 61.1% | 90.5% | 42.3% | 76.2% | 67.8% | 52.6% | 57% | 47.7% | 55.1% | 86.3% | 61.9% | 66.9%
